# Reference: PubChem BioAssay AID485344 (National Center for Advancing Translational Sciences (NCATS), 2010)
# Out of some 340,000 compounds screened, about 6,900 (2%) were called active. Cut-off read from the data, not from the text of the source: active = inhibition above about 30%; inactive = below that, where a call was filed. The entries are a selection whose mix differs from that of the whole data set. Entries without a call were filed so in the source.
# Biological target: D(2) dopamine receptor (Homo sapiens) (UniProt P14416)
# Experiment: HTS Assay for Allosteric Antagonists of the Human D2 Dopamine Receptor: Primary Screen for Antagonists; note: 0% is about no effect
# Conditions: HEK293 TREx D2 cells, calcium flux, dopamine EC80; at 10 µM; stronger effect = higher value
# Outline: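 In this primary screen, negative modulation is detected by tracking calcium flux after an EC80 dopamine challenge in inducible HEK293 T-REx D2 cells preexposed to test compound for 180 s.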
# Sequence of UniProt P14416 (P14416 whole entry, looked up): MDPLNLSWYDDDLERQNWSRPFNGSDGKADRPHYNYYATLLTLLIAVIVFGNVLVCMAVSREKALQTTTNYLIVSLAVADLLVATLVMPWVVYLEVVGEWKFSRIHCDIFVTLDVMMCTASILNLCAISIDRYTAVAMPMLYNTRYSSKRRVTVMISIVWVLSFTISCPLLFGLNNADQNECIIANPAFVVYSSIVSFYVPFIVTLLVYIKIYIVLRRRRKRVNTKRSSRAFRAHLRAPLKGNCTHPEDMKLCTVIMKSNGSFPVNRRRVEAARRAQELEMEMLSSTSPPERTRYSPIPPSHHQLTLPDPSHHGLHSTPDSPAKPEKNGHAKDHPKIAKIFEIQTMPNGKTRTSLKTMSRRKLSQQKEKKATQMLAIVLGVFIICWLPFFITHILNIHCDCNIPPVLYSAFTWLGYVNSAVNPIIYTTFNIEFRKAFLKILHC
row,SMILES,inhibition
1,Cc1ccc(-c2nc3nc(C)cc(Nc4ccccc4O)n3n2)cc1,-9.97%
2,CCOC(=O)c1ccccc1NC(=O)N1CCC(N2CCN(Cc3ccccc3)C(=O)C2=O)CC1,22.1%
3,O=C(Cn1c(=O)n(CC2CCCO2)c(=O)c2ccccc21)Nc1cccc(Cl)c1 (stereo unspecified),-21%
4,COc1cc(OC)c(Nc2nc3ccccc3nc2-n2nc(C)cc2C)cc1Cl,-8.88%
5,COC(=O)c1scc(-c2ccc(C)cc2)c1S(=O)(=O)N1CCN(c2ccc(OC)cc2)CC1,7%
6,COc1ccc(N2CC(NC(=O)CCc3ccccc3)CC2=O)cc1OC (stereo unspecified),17.3%
7,Cc1cc(C)c(NC(=O)c2cc(S(=O)(=O)N3CCN(c4ccccc4F)CC3)ccc2F)c(C)c1,5.07%
8,Cc1ccc2oc(=O)n(CCCOc3ccc(Cl)cc3)c2c1,-12.6%
9,CCOC(=O)N1CCc2c(sc3c2c(=O)n(-c2ccc(CC)cc2)c(=O)n3CC(=O)Nc2ccc(C)cc2)C1,-19.1%
10,CCNc1ccc(-c2nc(-c3ccco3)no2)cc1[N+](=O)[O-],-7.55%
11,Cc1ccccc1NC(=O)c1c(NC(=O)Cc2ccccc2)sc2c1CCC2,15.8%
12,CN(C)S(=O)(=O)n1cc(/C=C(\NC(=O)c2ccccc2)C(=O)NCCCn2ccnc2)c2ccccc21,0.6%
13,CCOc1ccc(CNC(=O)c2ccc3c(c2)c(C)c(C)n3Cc2ccc(Cl)cc2)cc1,4.16%
14,O=[N+]([O-])c1cc(-n2cnnn2)ccc1N1CCC(Cc2ccccc2)CC1,active: 31.9%
15,CCc1ccc(CNC(=O)c2cc(-c3ccc(Cl)s3)nc3ccccc23)cc1,-24%
16,Cc1ccc(N(C)S(=O)(=O)c2nnc(NC(=O)C3CCCCC3)s2)cc1,-26.3%
17,CCOc1ccc(NC(=O)Cn2c(=O)oc3cc(S(=O)(=O)N4CCCCCC4)ccc32)cc1,13.4%
18,Cc1ccc(CCNC(=O)c2ccc(CSCc3ccccc3Cl)o2)cc1,4.19%
19,CC(=O)OCCNc1nc(-c2ccccc2)nc2ccccc12,active: 38%
20,COc1ccc(-n2c3c(cc(-c4nc(-c5ccc(Cl)cc5)cs4)c2=O)C(=O)CC(C)(C)C3)cc1,-7.87%
21,Cc1ccc2scc(N3CCN(c4ccc(F)cc4)CC3)c(=O)c2c1,2.6%
22,O=C1c2[nH]nc(-c3ccc(Br)cc3)c2C(c2cccc(O)c2)N1c1ccc(Cl)cc1 (stereo unspecified),8.1%
23,COc1ccc(NC(=O)c2sc3nc4n(c(=O)c3c2C)CCC4)cc1Cl,10.9%
24,COc1ccc(Cl)cc1NC(=O)CN(c1cccc(C)c1C)S(=O)(=O)c1ccccc1,1.42%

row,SMILES,inhibition
1,CCOc1ccc(C(c2c(O)cc(C)n(CCOC)c2=O)N2CCC(C)CC2)cc1 (stereo unspecified),-5.48%
2,O=C(NCc1ccc(Cl)cc1)c1cnc2sc(N3CCCC3)nn2c1=O,-2.4%
3,COc1ccc(C2c3c(n(C)c4ccccc34)C(=O)N2CC(=O)Nc2ccccc2F)cc1 (stereo unspecified),4.16%
4,COc1ccc(CCNC(=O)c2ccc3c(c2)N(Cc2cccc(Cl)c2)C(=O)CS3)cc1OC,-13%
5,COc1ccc2c(c1)sc1ncc(C(=O)NCc3cccc(Cl)c3)c(=O)n12,2.22%
6,COc1cc(C)ccc1OCCn1c(-c2ccc(Cl)cc2)nc2ccccc2c1=O,13.8%
7,Cc1ccc(NC(=O)Cn2c(=O)n(Cc3nc(C)no3)c(=O)c3cc4c(cc32)OCO4)c(Cl)c1,10.3%
8,Cc1cccc(C)c1NC(=O)Cn1c(=O)n(Cc2ccco2)c(=O)c2ccc(C(=O)NC3CCCC3)cc21,4.98%
9,CC1Cc2cc(S(=O)(=O)CCC(=O)Nc3ccc(F)c(Cl)c3)ccc2N1C(=O)C1CC1 (stereo unspecified),-6.73%
10,O=C(CCn1c(=O)c2sccc2n(Cc2cccc(F)c2)c1=O)NCc1ccc2c(c1)OCO2,4.89%
11,Cc1ccc(S(=O)(=O)c2nc(-c3ccco3)oc2SCC(=O)Nc2ccc(F)cc2)cc1,-2.89%
12,OC(CNCC1CCCCC1)COc1ccccc1 (stereo unspecified),active: 46.5%
13,COC(=O)c1cc(-c2ccc(OC)c(OC)c2)c2c(=O)[nH]c(=O)n(C)c2n1,0.46%
14,CCC(=O)N1CCc2cc(S(=O)(=O)NC(CC(C)C)C(=O)NCc3ccc(F)cc3)ccc21 (stereo unspecified),24%
15,CS(=O)(=O)c1nc(-c2ccc(Br)cc2)cc(-c2ccccc2)c1C#N,active: 41%
16,COc1ccc(-c2cn3nc(N4CCCC(C(=O)NCc5ccccc5OC)C4)sc3n2)cc1 (stereo unspecified),-1.24%
17,COc1ccc(N2CCC(CNC(=O)Nc3cccc(OC)c3)C2)cc1 (stereo unspecified),active: 56.7%
18,Cc1nn(-c2ccc3nnc(C)n3n2)c(C)c1CCC(=O)Nc1ccc(OC(F)(F)F)cc1,9.95%
19,CCOC(=O)c1cnc2c(ccc3ccccc32)c1Nc1ccc(Cl)cc1,11.6%
20,CC(=O)Nc1ccc(NS(=O)(=O)c2c(C)nc3sccn3c2=O)cc1,13.6%
21,CCOc1ccc(CNC(=O)C2CCCN(S(=O)(=O)N(C)c3ccc(F)cc3)C2)cc1OC (stereo unspecified),2.06%
22,Cc1ccc(-n2ncc3c(Nc4ccccc4C)ncnc32)cc1,0.816%
23,COc1cccc(Cn2c(NCc3ccc(C)cc3)nc3c2c(=O)n(C)c(=O)n3C)c1,-10.4%
24,O=C(c1ccc2c(c1)OCO2)N1CCCC(c2ccccc2)C1 (stereo unspecified),active: 54.6%

row,SMILES,inhibition
1,CCc1ccccc1Nc1nc2cc(Cl)c(Cl)cc2nc1-n1nc(C)cc1C,-9.79%
2,CCOc1ccc(C(=O)c2cnc3ccc(Cl)cc3c2S(=O)(=O)c2ccc(C)cc2)cc1,2.05%
3,Cc1ccc(-n2nc(CO)c(C(=O)NCCCc3ccccc3)n2)cc1,-3.27%
4,Clc1ccc(CN2CCN(c3ncccn3)CC2)cc1Cl,active: 77%
5,O=C(CN1CCc2ccccc2C1)Nc1cccc(S(=O)(=O)N2CCCC2)c1,active: 49.2%
6,Cc1ccc(-n2nc(C(=O)Nc3ccc(C)c(F)c3)c3c4ccccc4n(C)c3c2=O)cc1,-6.48%
7,COc1ccc(-n2c(=O)c3ccccc3n(Cc3ccccc3C)c2=O)c(OC)c1,-23.1%
8,CC(=O)Nc1nonc1-c1nnc(SCC(=O)Nc2ccc(C)c(Cl)c2)n1-c1ccccc1,11.6%
9,COc1ccc(C(=O)N2CCC(c3nc(-c4ccc(S(=O)(=O)N5CCCC5)cc4)no3)CC2)cc1,-6.33%
10,COC(=O)c1cc2occc2n1Cc1cccc(C)c1,-10.2%
11,COc1ccc(C(=O)Nc2ccc(-c3nc4ccccc4s3)cc2C)cc1Cl,-15.4%
12,COc1ccccc1CNC(=O)c1cnc2sc(N3CCCCCC3)nn2c1=O,-3.88%
13,O=C(CSc1nnc2ccc3ccccc3n12)c1ccc(F)cc1,-19.5%
14,Cc1ccc(C(=O)Nc2onc3c2CCCC3)cc1,-17.2%
15,O=c1c2ccccc2n(Cc2ccccc2F)c(=O)n1-c1cccc(F)c1,10.6%
16,Cc1cccc(NC(=O)c2ccc(-c3nc(CSc4ccccc4)c(C)o3)cc2)c1C,8.66%
17,Cc1nc2sc(C(N)=O)c(N)c2c(-c2ccc(Br)cc2)c1C(=O)Nc1ccc(Cl)cc1,-6.87%
18,CSc1ccc(CNC(=O)CCn2c(=O)c3cccn3c3ccc(F)cc32)cc1,-3.43%
19,Cc1ccccc1C(=O)Nc1ccc2c(c1)CCCN2C(=O)c1cccs1,3.44%
20,CCn1ccc2cc(S(=O)(=O)N3CCCN(C(=O)NCCOC)CC3)ccc21,-13.3%
21,CCOC(=O)C1=C(CN2CCN(c3cc(C)ccc3C)CC2)NC(=O)NC1c1ccc(Cl)cc1 (stereo unspecified),25.5%
22,COc1cccc(NC(=O)Cn2c(=O)n(CCCCC(=O)NCCc3ccccc3)c(=O)c3ccccc32)c1,-22.6%
23,CCS(=O)(=O)N1CCc2cc(C(=O)Nc3cc(C(F)(F)F)ccc3Cl)ccc21,-17%
24,O=C(CSCc1cccc(Br)c1)N/N=C/c1ccc2c(c1)OCO2,active: 33.5%

row,SMILES,inhibition
1,Cc1ccc(C)c(CN2C(=O)c3ccccc3S(=O)(=O)c3ccc(C(=O)N4CCN(c5ccccc5F)CC4)cc32)c1,3.64%
2,COc1ccc(CNC(=O)CCc2nnc3n(CC(C)C)c(=O)c4ccccc4n23)cc1,8.44%
3,COc1ccccc1N1CCN(Cc2cc3c(cc2Br)OCCO3)CC1,active: 104%
4,CCOC(=O)c1ccc(NC(=O)COC(=O)c2cn(CC)c3nc(C)ccc3c2=O)cc1,-12.4%
5,COc1ccccc1-n1nc(-c2ccccc2)c2cnc3cc(C(F)(F)F)ccc3c21,-21.7%
6,CC1CN(S(=O)(=O)c2ccc3c(c2)NC(=O)CC(=O)N3)c2ccccc2O1 (stereo unspecified),5.9%
7,COc1ccc(-c2oc3ncn4nc(-c5ccccc5C)nc4c3c2-c2ccc(OC)cc2)cc1,-1.48%
8,Cc1cccc(C)c1OC(=O)CSc1nnc(-c2cccs2)o1,16.3%
9,CCOc1cc(C(=O)N2CCC(c3ccncc3)CC2)cc(OCC)c1OCC,-3.62%
10,COc1ccc(Cl)cc1NC(=O)CSc1nc(-c2ccco2)cc(C(F)(F)F)n1,-0.221%
11,NC(=O)C1CCN(C(=O)Cn2c(-c3cccs3)cc3ccccc32)CC1,4.69%
12,Cc1cc(C(=O)Nc2c(C)nn(Cc3ccc(F)cc3)c2C)no1,-2.04%
13,CCOc1ccc(NC(=O)CN2CCN(CC(=O)Nc3ccccc3OCC)CC2)cc1,4.13%
14,CCCCN(c1ccccc1)S(=O)(=O)c1ccc2c(c1)CC(C)N2C(=O)C1CC1 (stereo unspecified),3.51%
15,CCc1ccccc1Nc1nc2ccccc2n2cnnc12,4.2%
16,COc1ccc(CCNC(=O)CCn2c(=O)c3cccn3c3cccnc32)cc1OC,10.2%
17,COc1ccc(NC(=O)CSc2nc(-c3ccco3)nc3cc(=O)[nH]n23)cc1,0.45%
18,CCOC(=O)CN1C(=O)c2cccnc2Oc2ccccc21,-2.08%
19,O=C(CCCn1c(=O)c2sccc2n(Cc2cccc(Cl)c2)c1=O)NCc1ccc2c(c1)OCO2,-2.79%
20,CNS(=O)(=O)c1cn(CC(=O)N2CCN(c3cc(C)ccc3C)CC2)cc1S(=O)(=O)NC,9.24%
21,Cc1cc(C)cc(NC(=O)CSCc2cc(=O)c3ccc(C)c(C)c3[nH]2)c1,20.4%
22,O=c1cc(-c2ccccc2)n2c(SCc3cccc([N+](=O)[O-])c3)nnc2[nH]1,-14.5%
23,COc1ccc(C(=O)Nc2noc3ccccc23)cc1,2.35%
24,Cc1ccc(NC(=O)c2sc(-n3nc(C)c(Cc4ccc5c(c4)OCO5)c3C)nc2C)cc1C,6.68%
